± gives the standard deviation of the averaged measurements. The list shows a part of the results.
System: PfAP2-EXP AP2 domain (GST-tagged)
Experiment: gcPBM binding intensity (ln(normalized median fluorescence intensity)); higher = stronger DNA binding
Procedure, shortened: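 Plasmodium falciparum DNA-binding domains carrying a GST tag were expressed in E. coli and applied for 1 h, at about 25 μg on average, to an Agilent 4 × 180k array. The array held primer-extended double-stranded 36-bp intergenic genomic probes together with negative controls, and binding took place in 1× PBS with 1% milk, 0.2 mg/ml BSA, 0.5% salmon testes DNA and 0.03% Triton X-100. An Alexa488 anti-GST antibody detected bound protein, and the array was scanned at 488 nm. Binding intensity is taken as the highest Masliner-normalised natural-log median intensity across replicate spots of either probe orientation.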

Row | Sequence | gcPBM binding intensity (ln)
1 | GTTTTAACAAAATTAGTGCATTTATCAATTATATAA | 8.33 ± 0.16
2 | TTTTTTTTTTCAATGGCACACATTTTAGATTTATGC [CACACA_site1074] | 8.38 ± 0.4
3 | ATAATACTACCTACATGTACTTATATATAAATGAAT [XGTACX_site3417] | 8.96 ± 0.39
4 | ACATCAAGCGGACACACACACACACCGACAGACACA [CACACA_site4361] | 8.8 ± 0.4
5 | AAAGAATCAAGAATAGTGCAAATATGTATAACCTTT | 8.86 ± 0.014
6 | ATAAAATAATGAAAAACACACATTTTTATTTGTATA [CACACA_site3369] | 8.2 ± 0.43
7 | ATATATATATATGAATCACACACAAAAAATATAGAG [CACACA_site9298] | 10 ± 0.16
8 | ATTGTTTTTTTTTCTTTGTGGAATGAATGAATATAT [XGTACX_negctrl_site603] | 8.71 ± 0.6
9 | AAGATTATAAATATATGTACATAAATATATTATATA [XGTACX_site8056] | 8.44 ± 0.3
10 | AATAACATGTTATATACACACATTATGAAGTCTTCA [CACACA_site746] | 8.43 ± 0.37
11 | AAAGTATTCTTTACACGTACATATATATAAATATAA [XGTACX_site7557] | 8.45 ± 0.37
12 | AATATAAATAATATATGTACATATATATATATATAT [XGTACX_site1021] | 10 ± 0.49
13 | AATATAGATATAAAAAGTACATTATATATATATATA [XGTACX_site6899] | 10.1 ± 0.49
14 | AGAATTGTTGTTAAAGAATTCTTTTTTATCCTTCCC [CACACA_negctrl_site1820] | 8.39 ± 0.49
15 | TTTGTATATATTAATGTACACACATGCGTATGTTCG [CACACA_site9193] | 8.65 ± 0.35
16 | TATACATACCATAATGCATGTAAGAACAAATAACTG [TGCATGCA_site264] | 8.8 ± 0.35
17 | AAAAAAAAAAAAAAGGTGCATACTTTGAATTAATAT [GTGCAC_site9401] | 8.825 ± 0.064
18 | ATGACTCTCAAGTTTGCACACATTTATATTTTTTAA [CACACA_site2605] | 8.85 ± 0.49
19 | TATTTTTTTTCTTATACACACCATGCATCAAACTAA [CACACA_site5208] | 8.76 ± 0.51
20 | TTTATATATATATATATATATAATAAATGATACACA [TGCATGCA_negctrl_site392] | 8.47 ± 0.36
21 | TCAAAAATATTCTGGAGTACCTTTTTAAAGGTATAG [XGTACX_site6893] | 8.17 ± 0.35
22 | TTTGCACCGTTTAAGTGTACAGAATTATGACATATA [XGTACX_site6735] | 8.79 ± 0.11
23 | ATTGCATATAATGGCACACATAAATCCATAATATAT [CACACA_site297] | 8.49 ± 0.35

Row | Sequence | gcPBM binding intensity (ln)
24 | TAAATATATATATACACACACATACACAAAAAAAAA [CACACA_site3580] | 8.73 ± 0.42
25 | TGTGGTTACATGTGCACACACTTATTTCGTTCTTAT [CACACA_site4907] | 9.03 ± 0.23
26 | TGTGTTCATCTATGCACACGCATATATATTATTGTT [CACACA_site5985] | 8.49 ± 0.28
27 | CAAAATTTATGTAAAAGTACAAAAATATAGAAAGAT [XGTACX_site1122] | 8.99 ± 0.35
28 | TAATCGAAACAAAGAACATGCAAACATATACCTATA [TGCATGCA_site894] | 8.62 ± 0.14
29 | AATATAATATAAGGATCACACACAAACACCCATATA [CACACA_site8084] | 8.91 ± 0.61
30 | TTTTATTCCTTCTTTGCACACGTTTAAAAATATATA [CACACA_site2899] | 9.4 ± 0.36
31 | TAAGTTATATGTATATGTACTTATATATATATATAT [XGTACX_site5402] | 10.1 ± 0.3
32 | ATTAAAAAAATTAAAAGTACACATATTTCAATGATA [XGTACX_site5606] | 8.39 ± 0.38
33 | AAAATTAAAAAGAACACACAAATATATCTATAATAA [CACACA_site7660] | 8.65 ± 0.4
34 | TAAAAAAAAAAAAAAACACACATATAAATATATATA [CACACA_site1243] | 8.21 ± 0.25
35 | GCACATAAATATATGACACACACACCGATTATATAT [CACACA_site9003] | 8.66 ± 0.43
36 | TTAATAAATAAAAATGCACACAGTTAACATGTTGAA [CACACA_site1200] | 8.61 ± 0.38
37 | ATAATAATTTAATACATACACACGTATATCTTTTTT [CACACA_site2041] | 8.45 ± 0.4
38 | AAAAAAAAAAAAAAAACACACAAACATCAAATTATT [CACACA_site5083] | 8.6 ± 0.2
39 | ATACAAAAAGTAAAAAGTACTTAACTAAATATATAA [XGTACX_site2335] | 8.58 ± 0.35
40 | TTTTCAATATATTAATGTACGAATACGCAAATAAGA [XGTACX_site1613] | 9.35 ± 0.48
41 | TTTTTTTTTTTTTTTGCACACACATAATAGGTACAA [CACACA_site3578] | 8.46 ± 0.37
42 | GCAGGATTGGTTCAAACACACATATTATATGACTAT [CACACA_site660] | 8.61 ± 0.4
43 | ATCTTATATGATCACACACACACGCACAAAACAGAA [CACACA_site4913] | 8.91 ± 0.52
44 | ATATACATATGTGTGTGTACTTATATCACATTTTTG [XGTACX_site3785] | 8.61 ± 0.41
45 | TTATGGATAAATAAATGTACGTTAAGATAACACAAA [XGTACX_site4208] | 8.51 ± 0.39
46 | GTTTTTTTGTTTTAGTGTACCTAAAACTGCATGTAG [XGTACX_site294] | 9.41 ± 0.38

Row | Sequence | gcPBM binding intensity (ln)
47 | TCGACAAAGGCATATACACACATTTGTAACATAAAT [CACACA_site4471] | 8.31 ± 0.52
48 | ATTTCTCTATAGTAATGTACAAAAAAAAGGAAAAAG [XGTACX_site2757] | 8.76 ± 0.39
49 | CAAGAATAAAAATACAAGCACACATGTATGAAATAT [CACACA_site3214] | 8.91 ± 0.42
50 | ACATAAAATAAATATACACACATATGTATTTATTAT [CACACA_site5648] | 8.28 ± 0.43
51 | AAACCGAATTTACATGAATGTAAATTATGTTGTTTT [CACACA_negctrl_site1834] | 8.37 ± 0.38
52 | TATTTAATTACATGAACACACATTATGTATTTTTAA [CACACA_site2962] | 8.3 ± 0.3
53 | TAAAAAAAAAAAACAAGTACATATATAAATATATAT [XGTACX_site7537] | 8.19 ± 0.35
54 | TTTTTATTTAATAATATATTAATCATATAAATAAAT [GTGCAC_negctrl_site210] | 7.96 ± 0.43
55 | TATATTCTTATTATTGCATGCTGCACGAAGATTTTC [TGCATGCA_site831] | 9.14 ± 0.56
56 | ATAATAAATAAAATAACACACATATATAGATATATA [CACACA_site6224] | 8.44 ± 0.29
57 | TGTATGCATATTTGATGTACGCACATATACTAATTT [XGTACX_site3159] | 8.82 ± 0.47
58 | TTTATATAAAAAAATTGTACATATTTATTATAAACA [XGTACX_site2124] | 8.26 ± 0.3
59 | TTTAATTATAAGATAACACACAAAAAAAATAAAATA [CACACA_site254] | 8.7 ± 0.59
60 | GTATGTTTGTTATGCACACAAATGCATCTTATTTCC [CACACA_site2690] | 8.96 ± 0.28
61 | TATATATATATATATTGTACATTTTTTTTTTTTTTT [XGTACX_site7891] | 10.1 ± 0.23
62 | AAAAAAAAAAAAAGCACACACACATATGAGTATATA [CACACA_site4682] | 8.54 ± 0.33
63 | AATTTCAAATTGTATGTGCACATGTAGAAGTACTTT | 9.31 ± 0.27
64 | GTGCCTTTAAAAAAAAGTACAAAAAAGAACGAATTA [XGTACX_site3714] | 8.93 ± 0.14
65 | TATGTAAAGAGTAAGGGTACATGTATAATACGGCTC [XGTACX_site1283] | 9.3 ± 0.56
66 | TTTTCATTAAATATATATGCATACCATATGTACATT [GTGCAC_negctrl_site539] | 8.68 ± 0.39
67 | TTTAAAATATTTTCTTGTACGAAGGAACATTTCTTA [XGTACX_site4013] | 8.5 ± 0.64
68 | AAATACTATATCAAGCGTACTTATTTCATGGTAATA [XGTACX_site7878] | 8.62 ± 0.3
69 | TAATAAAGTATTTTGCGTACTTATTTTATTCTTCTA [XGTACX_site2095] | 8.1 ± 0.085

Row | Sequence | gcPBM binding intensity (ln)
70 | ATTGTGTGAACAAAATGTACATTTTCTCTACATTAA [XGTACX_site1333] | 8.46 ± 0.35
71 | TGGCATATATATAAATGTACTTTCTTTCTATCTGTT [XGTACX_site8483] | 8.59 ± 0.37
72 | GCCCCCAAATTATGTGTGCACTTTATATTCCTGAGA [GTGCAC_site9474] | 9.8 ± 0.2
73 | TTATATATATGTAATTGTACTTTTAATTTTTTTTTA [XGTACX_site4357] | 8.33 ± 0.44
74 | TATTTTATAATAGGCACACATATAAAAATATATATA [CACACA_site4127] | 8.29 ± 0.5
75 | TAATTTTTTTTAAATACACACTGAAATGTGAATTTT [CACACA_site4476] | 8.09 ± 0.35
76 | ATAAAAATAAAAGACGCATGTTCTTAAAATAAGAAC [TGCATGCA_site189] | 8.49 ± 0.49
77 | GTGTGATCTTTTGAAAGTACATTTTTTTTTTTTTTT [XGTACX_site6311] | 8.43 ± 0.22
78 | ATATATATATATAATGCACACATTATGAATTATGTA [CACACA_site3384] | 9.98 ± 0.26
79 | AAACAAAATGGTAACACACACATATATATATATATA [CACACA_site1939] | 10.1 ± 0.62
80 | AGGTCATACATAAAATGTACATATATATAAATATAT [XGTACX_site7147] | 8.55 ± 0.49
81 | TGAACACCCAAATACACACACTCAAAAAAAAAAAAG [CACACA_site5467] | 8.39 ± 0.53
82 | ACAAGAATACACCACGCACACACACTAGAGAAAAAA [CACACA_site9276] | 8.66 ± 0.53
83 | AATTAATTTATTTTATAAATAGTTAGATCGTCATAA [GTGCAC_negctrl_site660] | 8.27 ± 0.47
84 | ATTTCATTAAAGATTACATGCAATTCTATATTATTT [TGCATGCA_site260] | 8.79 ± 0.16
85 | AAAACACGCGGACACACACACACACGCCCACATATA [CACACA_site7105] | 8.94 ± 0.27
86 | AATTGCTCGATATATGCACACAGTTTTGTTATTTTT [CACACA_site8465] | 8.94 ± 0.36
87 | AACATAAATTACTTTTTACACACTAATATAAAATAC [CACACA_site8297] | 8.51 ± 0.2
88 | ACTTTCAAGGATGTACGTACATATGTATTTTATAAC [XGTACX_site6714] | 8.88 ± 0.28
89 | TCATGTAACCATTCATGTACTCAAAAAAAAAAAAAA [XGTACX_site1027] | 8.22 ± 0.44
